Data reported in PubChem BioAssay AID1347417 (National Center for Advancing Translational Sciences (NCATS), 2020).
Screen size: about 120,000 compounds; about 5,300 (4.4%) were called active. The inconclusive results got no clear call from the source; some entries with a clear call stand among them for comparison. Calls come from the whole dose curve; as a rule, active = well fitted inhibition curve with a large enough effect; inconclusive = small, poorly fitted or top-dose-only effect; inactive = no such curve, though single readings can be large or run the other way. Potencies beside an inconclusive call are fits to weak or partial responses and may not hold up.
Potency is the fitted concentration of half-maximal effect; tags give direction and shape of the fitted curve.

Experiment: qHTS Primary assay for Inhibitors of Plasmodium falciparum Dd2 growth in vitro; note: nearly all actives have a fitted effect of over 65% in size
Conditions: P. falciparum Dd2 growth, SYBR Green, 72 h; series mostly up to 28.9 µM
How it was run: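 Infected erythrocytes (Dd2, 0.3% parasitemia, 2.5% hematocrit final) are added to compound in RPMI-1640/Albumax II medium, grown 72 h at 37C in low oxygen, then lysed with saponin/Triton-X containing SYBR Green and read by fluorescence.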
For COc1ccc(C(=O)N2CCCC(c3nc(-c4ccccc4)no3)CCNC(=O)CC2)cn1 (centres undefined), the Potency was inconclusive: 3.98 µM [inhibitor, single point].
For COc1ccc(-c2cn3c(n2)sc2cc(C(=O)NCCc4ccc(OC)cc4OC)ccc23)cc1, the Potency was inconclusive: 17.8 µM [inhibitor, single point].
For CCc1ccc2c(c1)-c1ccccc1S(=O)(=O)N2CC(=O)N1CCCCC1, the Potency was inconclusive: 8.91 µM [inhibitor, partial curve, poor fit].
In the case of COc1ccc(CCN(C)C2CCCN(c3ncccc3C#N)C2)cc1OC (centres undefined), the Potency is reported as inconclusive: 8.91 µM [inhibitor, partial curve].
With CCOCCCN(Cc1ccco1)C(=O)c1cc2c(=O)[nH]c3ccc(C)cc3c2s1 the Potency was active: 10 µM.
With CCC1Oc2ccc(NC(=O)C(CC)c3ccccc3)cc2CN(Cc2ccc(OC)cc2)C1=O (centres undefined) the Potency was inconclusive: 2.82 µM [inhibitor, single point].
With COc1ccc(/C=C(\C#N)c2nc3ccccc3n2C)c(OC)c1 the Potency was inconclusive: 11.2 µM [inhibitor, single point].
With CCCNC(=O)N1CCCC(c2nn(C)c(=O)n2CC)C1 (centres undefined) the Potency was “inactive”.
In the case of Cc1nc(C)c(C(=O)NCc2cccnc2N(C)C2CCCCC2)s1, the Potency is reported as “inactive”.
For O=C(NCc1cccnc1)[C@@H]1C[C@H](c2ccc(F)cc2)N(Cc2ccccc2Cl)C1, the Potency was inconclusive: 15.8 µM [inhibitor, single point].
In the case of CCCCc1cn(C[C@H]2CC3CCN2C[C@@H]3C(=O)NCc2ccccc2)nn1 (some centres undefined), the Potency is reported as inconclusive: 31.6 µM [inhibitor, single point].
For O=C(COc1ccccc1)NCCC1CCN(C(=O)Nc2ccccc2)CC1, the Potency was active: 11.2 µM.
With CCN(CC)CCCNC(=O)c1nn(-c2ccc(C)cc2)c(=O)c2c1c1ccccc1n2C the Potency was inconclusive: 17.8 µM [inhibitor, single point].
In the case of COc1ccccc1CNC(=O)C1Cn2cccc2C(=O)N1CC(C)C (centres undefined), the Potency is reported as inconclusive: 17.8 µM [inhibitor, single point].
With COC(=O)c1sc2cccc(F)c2c1S(=O)(=O)N1CCN(c2ccc(C)cc2C)CC1 the Potency was inconclusive: 10 µM [inhibitor, single point].
For CC(C)N1CC[C@@H]2[C@H]1C(=O)NC[C@H](CCC(=O)NCc1ccccc1)N2C, the Potency was “inactive”.
For Cc1cn2nnc(C(=O)N3CCC(C(=O)NCc4ccccc4Cl)CC3)c2c(=O)[nH]1, the Potency was “inactive”.
In the case of Cc1cccc(N2CCN(C(=O)c3ccc4c(c3)c(C)c(C)n4C)CC2C)c1 (centres undefined), the Potency is reported as “inactive”.
With Cc1ccc(NC(=O)c2cc(S(=O)(=O)N3CCCC3)c[nH]2)c(C)c1 the Potency was “inactive”.
